# Measured values reported in PMC6212790.
# The other results are listed elsewhere or left out. At the low end of the ranking the order means little.
# Target: T1, GST-Rok (full length) (UniProt O34857)
# T1 sequence: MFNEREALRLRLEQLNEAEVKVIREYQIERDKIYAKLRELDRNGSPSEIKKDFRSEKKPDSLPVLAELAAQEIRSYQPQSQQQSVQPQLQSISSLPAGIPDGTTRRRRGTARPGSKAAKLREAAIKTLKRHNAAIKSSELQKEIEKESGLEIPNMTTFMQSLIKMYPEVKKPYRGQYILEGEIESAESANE
# Test: protein binding microarray;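 further: rank score from −0.5 (least bound) to 0.5 (best bound)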
# Settings: Rok is a gene silencer of Bacillus subtilis; high values mean tight binding; most listed sequences are background and not binding sites; double strand, one strand shown
row,Sequence,binding signal [E-score]
1,CACAAGAA,-0.0726
2,GGCACGCC,-0.366
3,GAGAGACA,-0.0673
4,CGACTAAA,-0.0868
5,GGATAGAC,-0.148
6,AGCGACTA,-0.0166
7,CTTACGCC,-0.017
8,AATTAGGT,0.178
9,CCCAATCG,-0.163
10,CACAACCA,-0.129
11,AGGACGAA,-0.206
12,GCTTTACA,0.0417
13,CACGTCTC,-0.183
14,CTTCGTAA,-0.101
15,AATTCTGA,0.179
16,CCTACTCA,0.114
17,GCCCTGTA,-0.175
18,AACTCCAG,-0.0103
19,ATAGTTTC,0.398
20,CTGTTAAG,-0.0725
21,CCCCTGAA,-0.363
22,CTTGGATC,-0.194

row,Sequence,binding signal [E-score]
1,AATGCGGA,-0.0975
2,AAGAATTC,0.225
3,ACGAGCAA,-0.061
4,CTGGCTGA,-0.223
5,ACAGCCGC,-0.136
6,ACGTATGC,0.0834
7,TAAGTATA,0.155
8,CACCTAAC,0.06
9,CAGACGGG,-0.323
10,CGTATTCA,0.132
11,CATCCAGC,-0.135
12,ACGGGAAG,-0.0949
13,GACATGTC,-0.17
14,ATATGGCA,0.0716
15,AAGCTGCC,-0.0576
16,GCAAAAGA,-0.14
17,CGCCCGCC,-0.282
18,AACCCGCC,-0.157
19,CGACTACA,0.0566
20,ATCTCGAC,0.0592
21,CCGGACCG,-0.109
22,CGTGGACC,-0.308

row,Sequence,binding signal [E-score]
1,ATTCTGCC,-0.00526
2,CCAATCGC,-0.041
3,AAGCTACA,0.265
4,GCGCATTA,0.182
5,GGGCTTAC,-0.238
6,GGTGTCTA,-0.198
7,ACCGCGGT,-0.333
8,ATGTTTTG,0.148
9,AACTTGTC,-0.0088
10,CTCTCTAA,-0.0455
11,GGATGTAA,0.182
12,AGGGCGTC,-0.433
13,CACATGCC,-0.234
14,CAGCGATG,-0.0207
15,AATAGTGT,0.292
16,ACTCTAGG,-0.135
17,AGCAAACT,0.248
18,GAGAGCCA,-0.156
19,AAGCGTAC,-0.0898
20,AATAACCG,0.218
21,GATTTCTA,0.3
22,CATGCTCA,-0.172

row,Sequence,binding signal [E-score]
1,CGACGGGC,-0.306
2,CAGCATTC,0.0234
3,AACACGGA,0.18
4,CGGGATAG,-0.0108
5,ACAGCACT,-0.178
6,CCTGCATC,0.0324
7,CAGCGTGA,-0.12
8,GCGTTTTA,0.117
9,GACAACGC,-0.287
10,ACCCAGTA,0.0523
11,GCGACTGA,0.0748
12,AACTAATT,0.32
13,CATGACAC,-0.00451
14,GATATGTA,0.296
15,CTATGTTC,-0.0285
16,GTACCATA,0.339
17,ACTCTCCC,-0.284
18,GCCCATCC,-0.148
19,CATAACTA,0.312
20,CCGGCCCG,-0.399
21,TAAGCACA,0.0191
22,CCTCTGAA,-0.125

row,Sequence,binding signal [E-score]
1,ACTTTATA,0.206
2,AAAAGTTC,0.114
3,GCGGACGA,-0.191
4,CTAACATA,0.186
5,CGCGACGA,-0.121
6,GATACTGA,0.109
7,ACCGGAGC,-0.212
8,CCACCGCC,-0.0582
9,CTTTGCGC,0.085
10,AGAACACA,0.0687
11,ATCCCCAG,-0.303
12,AATTCGCT,0.0509
13,TCCGCTCA,-0.163
14,AACCGCGC,-0.146
15,TCTCAGCA,-0.0372
16,GGAGTTCA,-0.00501
17,GGAATGAA,-0.117
18,GTTCACCA,0.0397
19,TAGGCATA,0.235
20,GCAGGGGA,-0.319
21,ACTCCAAG,-0.0862
22,CTGGGATC,-0.273
